Assay results from PMC4336329 (PLoS ONE, 2015).
About 14,000 (4.5%) of roughly 310,000 compounds showed an effect of 50% or more. The effect is printed as a negative number. Some of the results follow.

What follows are molecules tested against human ether-à-go-go-related gene (hERG) potassium channel (human, UniProt Q12809) (assay: primary screen, population patch clamp on CHO cells stably expressing hERG).
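Also: peak tail current of the secondary pulse compared with the same well before compound.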

Sequence of human ether-à-go-go-related gene (hERG) potassium channel (Q12809 whole entry, looked up): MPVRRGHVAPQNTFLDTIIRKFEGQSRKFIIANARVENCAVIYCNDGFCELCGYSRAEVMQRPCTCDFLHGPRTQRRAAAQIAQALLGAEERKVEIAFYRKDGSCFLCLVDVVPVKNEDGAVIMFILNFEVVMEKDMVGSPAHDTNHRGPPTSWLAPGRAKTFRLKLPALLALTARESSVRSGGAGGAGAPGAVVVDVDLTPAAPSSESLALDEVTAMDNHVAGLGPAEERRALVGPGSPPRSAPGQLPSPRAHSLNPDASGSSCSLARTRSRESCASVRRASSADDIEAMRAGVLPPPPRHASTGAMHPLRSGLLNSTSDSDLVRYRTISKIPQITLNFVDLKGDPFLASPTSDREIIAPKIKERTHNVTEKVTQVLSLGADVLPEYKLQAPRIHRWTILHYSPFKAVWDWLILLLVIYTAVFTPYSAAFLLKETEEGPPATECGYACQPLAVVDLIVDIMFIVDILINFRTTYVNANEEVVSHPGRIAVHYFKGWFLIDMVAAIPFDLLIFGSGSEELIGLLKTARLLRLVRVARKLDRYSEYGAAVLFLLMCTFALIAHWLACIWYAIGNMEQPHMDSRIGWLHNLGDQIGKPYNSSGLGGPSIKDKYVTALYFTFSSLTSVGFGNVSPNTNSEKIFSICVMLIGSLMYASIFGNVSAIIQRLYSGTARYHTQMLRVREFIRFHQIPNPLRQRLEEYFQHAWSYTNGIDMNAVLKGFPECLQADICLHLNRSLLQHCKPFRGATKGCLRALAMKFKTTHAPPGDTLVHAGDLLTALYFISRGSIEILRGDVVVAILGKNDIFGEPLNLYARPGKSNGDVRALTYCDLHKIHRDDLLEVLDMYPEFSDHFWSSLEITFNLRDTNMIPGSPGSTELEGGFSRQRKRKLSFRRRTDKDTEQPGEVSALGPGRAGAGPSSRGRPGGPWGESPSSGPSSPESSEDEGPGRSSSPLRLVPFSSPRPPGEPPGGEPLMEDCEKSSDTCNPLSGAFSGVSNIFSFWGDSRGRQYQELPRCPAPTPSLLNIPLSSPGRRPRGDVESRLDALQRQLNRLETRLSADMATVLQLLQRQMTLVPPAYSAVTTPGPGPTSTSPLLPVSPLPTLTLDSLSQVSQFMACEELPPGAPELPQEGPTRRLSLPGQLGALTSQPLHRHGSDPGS

Row | SMILES | hERG current change (%, negative = inhibition) at 10uM
1 | C=CCNCCCCOc1ccc(OCC)cc1.O=C(O)C(=O)O | -17.4%
2 | CC(C)CC(C(=O)O)N1C(=O)[C@@H]2[C@H](C1=O)[C@@H]1C[C@H]2C(Br)C1Br (stereo partly shown) | -0.62%
3 | CC(C)N1C(=O)C2ON(c3ccccc3)C(c3cccs3)C2C1=O (stereo not shown) | -16.6%
4 | CC(/C=N/NC(=O)c1cccnc1)=C\c1ccco1 | 14.6%
5 | CCN1CCN(Cc2ccccc2C)CC1 | 10.1%
6 | Cc1cccc(C(=O)OCC(=O)NC(C)CCc2ccccc2)c1 (stereo not shown) | 12.8%
7 | CCOc1ccc(N(CC(=O)NCC2CCCO2)S(=O)(=O)c2ccc(C)cc2)cc1 (stereo not shown) | -10.3%
8 | O=C(CN1C(=O)c2ccccc2S1(=O)=O)NCCC1=CCCCC1 | -2.21%
9 | Br.CC(C)Cc1ccc(C2=CSC3=NCCN23)cc1 | -70.5%
10 | CC(C)C(=O)NC(c1ccc(N(C)C)cc1)c1c(O)ccc2ccccc12 (stereo not shown) | 11.2%
11 | COc1ccccc1/C(O)=C(\C#N)c1nc2ccccc2[nH]1 | 15%
12 | O=C(NC1=NCCS1)c1ccc2c(c1)C(=O)N(Cc1ccco1)C2=O | 3.1%
13 | O=C(Cc1ccccc1F)N1CCN(S(=O)(=O)c2ccc(Cl)cc2)CC1 | 12.6%
14 | Cc1nonc1CN(C)C(=O)c1cc(COc2ccc(F)cc2Cl)on1 | -4.29%
15 | Cc1ccc(S(=O)(=O)N(C)c2cc(S(=O)(=O)N3CCOCC3)c(C)cc2C)cc1 | -34.1%
16 | COc1ccc(S(=O)(=O)Nc2noc3ccccc23)cc1OC | 21.5%
17 | COc1cc(C)c(C(C)C)cc1S(=O)(=O)N1CCOCC1 | -14.6%
18 | O=C(C1CCN(C2CCN(Cc3ccsc3)CC2)CC1)N1CCOCC1 | -3.8%
19 | O=C(CSc1nnc(-c2cccnc2)n1Cc1ccco1)c1ccccc1 | -10.3%
20 | C=CCNC(=O)c1ccc2c(c1)S(=O)(=O)c1ccccc1C2=O | -45.8%
21 | COc1ccc(NC(=O)C/C(C)=N/NC(=O)C(=O)NC(C)C)c(OC)c1 | 16.5%
22 | Cc1cc2oc(=O)c(CC(=O)NCCCO)c(C)c2c2occ(C(C)(C)C)c12 | -9.35%
23 | CCOC(=O)c1c(NC(=O)COC(=O)c2nc(Cl)ccc2Cl)sc2c1CCC2 | 10.2%
24 | CCCN(CCC)C(=O)Cn1c(=O)c2ccccc2n2c(=S)sc(-c3ccccc3C)c12 | 2.97%
25 | CC(=O)c1ccn(S(=O)(=O)c2ccccc2)c1 | -11.9%
